Experimental data: patent publication US20230174644A1 (published 2023)

Target: T1, Integrin β1 (endogenous, HMECs) (human, UniProt P05556)
T1 construct: Only the β1 chain was probed; the α chain that goes with it in the cells is not determined; also called integrin α5β1
Test: immunoprecipitation with polyclonal antibodies against NL from HMECs, probing for integrin β1
Method: Since integrin was also reported to be a receptor for ES, it is interesting to test whether there is an interaction between NL and integrin. Among the integrin family, integrin α5β1 was reported to be the receptor for ES by Rehn et al. and Sudhakar et al., therefore, colocalization between cell surface NL and integrin α5β1 was performed by indirect immunofluorescence using the mouse anti-integrin β1 and the rabbit anti-NL. […] Consequently, IP with polyclonal antibodies against NL was introduced to capture the complex of NL and integrin β1. Unfortunately, integrin β1 cannot be detected in the precipitate, implying that the interaction between NL and integrin β1 is indirect. […] Therefore, we speculate that ES may interfere with cell motility and adhesion mediated by NL-myosin complex. It is plausible that cell surface NL and integrin α5β1 along with other proteins such as myosin form a huge complex which together serves as an integrated receptor for ES (see FIG. 6).

T1 sequence (P05556 21-798 limits assumed): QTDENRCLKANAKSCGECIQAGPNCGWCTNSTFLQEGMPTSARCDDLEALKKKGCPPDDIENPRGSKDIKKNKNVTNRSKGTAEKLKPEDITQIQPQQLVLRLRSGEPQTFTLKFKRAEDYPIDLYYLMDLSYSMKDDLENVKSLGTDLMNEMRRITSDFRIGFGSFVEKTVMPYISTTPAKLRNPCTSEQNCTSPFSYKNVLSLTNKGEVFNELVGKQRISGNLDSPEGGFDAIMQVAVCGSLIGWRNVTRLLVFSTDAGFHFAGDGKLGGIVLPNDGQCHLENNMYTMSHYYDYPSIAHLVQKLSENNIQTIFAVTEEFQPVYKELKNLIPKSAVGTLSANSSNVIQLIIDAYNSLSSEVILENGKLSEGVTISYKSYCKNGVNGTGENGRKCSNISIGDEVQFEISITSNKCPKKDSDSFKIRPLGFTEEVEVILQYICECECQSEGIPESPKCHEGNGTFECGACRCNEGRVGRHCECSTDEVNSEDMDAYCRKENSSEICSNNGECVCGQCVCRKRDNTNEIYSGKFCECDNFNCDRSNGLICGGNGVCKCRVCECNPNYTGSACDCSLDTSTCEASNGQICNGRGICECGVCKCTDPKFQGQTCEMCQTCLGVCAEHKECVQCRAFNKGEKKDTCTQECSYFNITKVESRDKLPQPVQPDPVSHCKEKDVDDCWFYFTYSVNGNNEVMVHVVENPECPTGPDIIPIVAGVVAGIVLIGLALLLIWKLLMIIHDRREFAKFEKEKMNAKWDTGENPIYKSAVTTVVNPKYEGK

binding result: no binding
B1: Nucleolin of human endothelial cells (cell surface NL and total endogenous NL of HMECs; NL of HUVECs) (receptor)
chain: not shown
notes: whole, on cells; Used for the native protein on intact cells, in Triton X-100 extracts of plasma membrane, in cell lysates and in isolated nuclei; also called NL (110 kDa)
